Measured values as given in PMC4336329 (PLoS ONE, 2015).
Hit rate of the full screen: of about 310,000 compounds, about 2,200 (0.71%) showed an effect of 50% or more. Effects have a minus sign here. This is one part of the list.

target: human ether-à-go-go-related gene (hERG) potassium channel (human, UniProt Q12809); test: primary screen, population patch clamp on CHO cells stably expressing hERG
Sequence (Q12809 whole entry, looked up): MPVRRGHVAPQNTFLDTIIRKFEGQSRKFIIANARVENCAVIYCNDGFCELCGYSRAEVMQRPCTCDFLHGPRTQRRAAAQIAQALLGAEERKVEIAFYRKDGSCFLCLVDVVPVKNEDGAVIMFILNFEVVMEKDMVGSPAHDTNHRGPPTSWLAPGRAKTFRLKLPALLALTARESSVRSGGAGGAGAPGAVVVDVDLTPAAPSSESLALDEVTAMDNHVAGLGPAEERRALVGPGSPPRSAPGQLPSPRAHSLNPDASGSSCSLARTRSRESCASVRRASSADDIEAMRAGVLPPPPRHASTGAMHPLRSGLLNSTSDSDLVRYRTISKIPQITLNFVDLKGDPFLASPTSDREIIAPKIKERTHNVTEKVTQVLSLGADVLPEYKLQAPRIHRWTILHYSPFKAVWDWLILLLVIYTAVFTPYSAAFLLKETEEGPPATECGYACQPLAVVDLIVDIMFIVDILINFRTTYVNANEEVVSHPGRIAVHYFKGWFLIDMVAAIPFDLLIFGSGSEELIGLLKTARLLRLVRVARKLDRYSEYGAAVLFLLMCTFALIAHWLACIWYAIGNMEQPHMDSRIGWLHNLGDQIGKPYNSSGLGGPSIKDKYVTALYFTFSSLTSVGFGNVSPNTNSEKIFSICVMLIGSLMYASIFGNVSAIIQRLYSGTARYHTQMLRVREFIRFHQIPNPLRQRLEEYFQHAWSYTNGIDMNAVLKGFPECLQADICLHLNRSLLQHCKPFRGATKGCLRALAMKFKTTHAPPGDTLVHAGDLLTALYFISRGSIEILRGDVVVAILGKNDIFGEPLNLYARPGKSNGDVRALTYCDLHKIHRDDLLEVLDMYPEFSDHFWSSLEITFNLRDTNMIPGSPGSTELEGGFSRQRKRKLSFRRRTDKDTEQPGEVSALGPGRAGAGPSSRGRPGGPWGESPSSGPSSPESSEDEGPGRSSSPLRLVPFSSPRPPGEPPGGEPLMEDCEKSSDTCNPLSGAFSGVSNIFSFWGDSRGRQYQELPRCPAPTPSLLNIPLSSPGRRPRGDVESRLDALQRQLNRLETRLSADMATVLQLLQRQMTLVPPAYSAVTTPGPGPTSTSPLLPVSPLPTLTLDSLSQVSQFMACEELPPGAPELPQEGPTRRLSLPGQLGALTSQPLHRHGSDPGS

| SMILES | hERG current change (%, negative = inhibition) at 1uM [%] |
| --- | --- |
| COc1ccc(C)cc1NC(=O)CN(C)S(=O)(=O)c1ccc2c(c1)c(=O)n(C)c(=O)n2C | 12.8 |
| O=C(Nc1ccc(Oc2ccccc2)nc1)C1CCN(Cc2ccco2)CC1 | -4.52 |
| CC(C)C(NC(=O)/C(=C\c1ccco1)NC(=O)c1ccco1)C(=O)O (stereo not shown) | 14.4 |
| C[C@@H](NC(=O)c1nc[nH]c1C(=O)N[C@@H](Cc1ccccc1)C(=O)OCc1ccccc1)c1ccccc1 | 5.55 |
| COc1ccccc1NC(=O)CSc1nnc(Cn2cnc3ccccc32)n1C | 1.02 |
| N#CC(C(=O)NCCc1ccccc1)c1nc2ccccc2nc1N1CCOCC1 (stereo not shown) | 6.05 |
| CC1(C)CC(=O)C2=C(C1)OC1=C(C(=O)CC(C)(C)C1)C2c1ccccc1 | 5.97 |
| O=C(Nc1ccccc1)/C(=C\c1cccs1)NC(=O)c1ccccc1 | 14.9 |
| COc1ccc(N(CC(=O)NCc2ccc(F)cc2)C(=O)CCC(=O)Nc2nccs2)cc1 | 14.5 |
| Cc1c(C(=O)O)cc(-c2ccccc2)n1Cc1ccccc1 | 14.8 |
| COc1ccccc1C(=O)Nc1cc2c(cc1C(=O)O)OCCCO2 | 4.66 |
| Cn1c(=O)n(C)c2cc(NC(=O)CCl)ccc21 | 1.81 |
| CCOc1cc(S(=O)(=O)NCCc2ccccc2C)c(OCC)cc1-n1cnnn1 | -5.54 |
| COc1c(C)cc(Br)cc1C(=O)NC(=S)NCc1ccco1 | 7.65 |
| COC(=O)c1cc(NC(=O)c2c(C)noc2C)ccc1N1CCOCC1 | 11.9 |
| Cc1cc(C)n(C(=O)c2c([N+](=O)[O-])cnn2C)n1 | 11.1 |
| O=C(CNC(=O)c1nc[nH]c1C(=O)N1CCc2ccccc2C1)OCc1ccccc1 | 9.92 |
| COc1cccc(CC(=O)N2CCC(n3nccc3NC(=O)C3CC3)CC2)c1 | -3.01 |
| N#C/C(=C\c1ccc(O)c(O)c1)C(=O)NCCc1ccccc1 | 10.8 |
| Cc1cccc(OCC(=O)Nc2ccc3c(c2)OCCO3)c1 | 18 |
| CSC1=NCCN1C(=O)c1ccc(S(=O)(=O)N2CCOCC2)cc1 | 14.5 |
| Cc1cccc(OC(=O)C2C(c3ccccc3)C(C(=O)O)C2c2ccccc2)c1 (stereo not shown) | 6.14 |

| SMILES | hERG current change (%, negative = inhibition) at 1uM [%] |
| --- | --- |
| COc1ccccc1NC(=O)CSc1nnnn1-c1ccc2c(c1)OCO2 | 9.46 |
| CCOc1cc(/C=N/NC(=O)C(=O)NCc2ccc3c(c2)OCO3)ccc1OCC(=O)N1CCOCC1 | 11.3 |
| CC(C)CNC(=O)COC(=O)c1ccccc1SCC(=O)NCC(C)C | 8.48 |
| Cn1cccc1CC(=O)N/N=C/C=C/c1ccco1 | 14.8 |
| CCCN(CCC)CC(O)Cn1c2ccccc2c2ccccc21 (stereo not shown) | 12.5 |
| Cc1ccc(NS(=O)(=O)c2ccc3c(c2)NC(=O)C(C)C(=O)N3)c(Br)c1 (stereo not shown) | 12.1 |
| NC(=O)C1CCCN(C(=O)c2ccc3c(c2)NC(=O)CS3)C1 (stereo not shown) | 11.3 |
| C/C(=N\NS(=O)(=O)c1ccccc1)c1ccccc1 | 17.2 |
| OC(CSc1ccc(F)cc1)CN1CCN(c2ccccc2)CC1 (stereo not shown) | 7.43 |
| CCn1c(CSc2nncn2-c2ccc(OC)cc2)nc2cc(S(=O)(=O)N(C)C)ccc21 | -14.8 |
| CCn1ccnc1CN(C)Cc1nc(CCC(C)C)no1 | 11.8 |
| COC(=O)COc1ccc(C2Nc3c(Cl)ccc(C(=O)O)c3C3C=CCC32)cc1 (stereo not shown) | 5.62 |
| CNc1snc(C)c1C(=O)OC(C)C(=O)c1ccc(F)cc1 (stereo not shown) | 12.1 |
| Cc1ccc2[nH]c(=O)c(C(c3nnnn3C(C)(C)C)N3CCN(C(=O)c4ccco4)CC3)cc2c1 (stereo not shown) | -3.38 |
| COc1ccc(C(=O)NNC(=S)Nc2ccccc2)cc1 | 10.5 |
| Cc1nn(-c2ccccc2)c2sc(C(=O)NC3CCCCC3)cc12 | 5.33 |
| CC(C)(C)NC(=O)CCN(/N=C/c1ccc([N+](=O)[O-])o1)C1=NS(=O)(=O)c2ccccc21 | 0.495 |
| CC(=O)Cn1ncc(N2CCOCC2)c(Br)c1=O | 13 |
| O=c1[nH]c(-c2ccccc2)nc(-c2ccccc2)c1Cl | 8.49 |
| CCn1cc(SCC(=O)NC2CCCC2)c2ccccc21 | 8.83 |
| Cc1cc(-c2cccs2)c2c(N)c(C(=O)c3ccc4c(c3)OCO4)sc2n1 | 8.51 |
| COc1cc(/C=N/NC(=O)c2ccncc2)ccc1OCc1cnc(Cl)s1 | 18.7 |

| SMILES | hERG current change (%, negative = inhibition) at 1uM [%] |
| --- | --- |
| CCCn1c(=O)c2c(c3ccccc31)OCC(=O)N2 | 8.11 |
| COc1ccc(Cn2c(=O)[nH]c3cc(C(=O)N4CCN(c5ccc(C(C)=O)cc5)CC4)ccc3c2=O)cc1 | 15.2 |
| COc1ccc(CNC(=O)C2CCC(CNS(=O)(=O)c3cccc4cccnc34)CC2)cc1 (stereo not shown) | 16.6 |
| Cc1ccc(CN2CCN(c3cccc4[nH]ccc34)CC2)cc1 | -12.9 |
| O=C(OCC(=O)N1CCOCC1)c1ccc2ccccc2c1 | 1.46 |
| Cn1c(/C(C#N)=C/c2ccc(O)cc2)nc2ccccc21 | 13.3 |
| CC1C2=C(CC(C)(C)CC2=O)NC2=C1C(=O)CC(C)(C)C2 | 11.2 |
| CCOC(=O)N1CCN(Cc2nc(-c3cccs3)no2)CC1 | 4.84 |
| CCOC(=O)NC1=NCC(C)S1 (stereo not shown) | 10.2 |
| Cc1ccc(NC(=O)CSc2nnc(-c3cc(C)on3)o2)cc1 | 17.9 |
| COc1ccc(NS(=O)(=O)/C=C/c2ccc(OC)c(OC)c2)cc1 | 10.9 |
| C[N+]1(C)CC2([N+](=O)[O-])CC=C(Oc3ccccc3)C([N+](=O)[O-])(C2)C1 (stereo not shown) | 4.61 |
| CCCCn1cnc2c(oc3nc4c(cc32)CCCC4)c1=O | -4.18 |
| Cc1[nH]c2ccccc2c1CCN(Cc1cccs1)C(=S)NC(C)(C)C | 6.48 |
| O=C(NCc1ccco1)C1CC(=O)N(c2cccc(Cl)c2)C1 (stereo not shown) | -2.9 |
| O=S(=O)(c1ccc(Cl)c(NC(=S)Nc2ccccc2N2CCOCC2)c1)N1CCOCC1 | 13.6 |
| COc1ccc2c(c1)c(C(=O)O)c(C)n2-c1ccc(Cl)cc1 | 13 |
| COc1ccccc1C(=O)N1N=C(c2ccc(NS(C)(=O)=O)cc2)CC1c1cccs1 (stereo not shown) | 11.1 |
| CCOC(=O)CCc1c(C)c2ccc(OCC(=O)OC(C)C)cc2oc1=O | 14.2 |
| Cc1ccc(C)c(C(=O)COC(=O)CN2C(=O)C3C4CCC(C4)C3C2=O)c1 (stereo not shown) | 14.9 |
| O=C(CSc1nc2c(sc3ccccc32)c(=O)n1CCCN1CCCC1)NCc1ccccc1 | -67.9 |
| COc1ccc(C2(C)NC(=O)N(CC(=O)Nc3c(C)n(C)n(-c4ccccc4)c3=O)C2=O)cc1 (stereo not shown) | 17.7 |

| SMILES | hERG current change (%, negative = inhibition) at 1uM [%] |
| --- | --- |
| COC(=O)c1ccccc1OC(=O)c1cc2ccccc2oc1=O | 10.5 |
| Cc1cccc(-c2nnc(SCC(=O)O)n2Cc2ccccc2)c1 | 12.5 |
| CCOC(=O)N1CCN(C(=O)CSc2nnc(-c3cccc(Cl)c3)o2)CC1 | 0.557 |
| O=C(Nc1cc(=O)[nH]c2nc(-c3ccccc3)nn12)c1ccc(Cl)cc1 | 6.48 |
| Cc1ccccc1OCC(=O)Nc1ccc2c(c1)C(=O)N(CCC(=O)O)C2=O | 8.86 |
| O=C(NCc1ccccc1)c1c(O)c2cccc3c2n(c1=O)CCC3 | 6.7 |
| Cc1c(-c2ccccc2)oc2c(C(=O)OCC(=O)Nc3ccc(F)cc3)cccc2c1=O | 6.58 |
| FC(c1nc2ccccc2[nH]1)C(F)(F)F (stereo not shown) | 15.6 |
| CCOc1ccccc1-c1nc2c(C(C)(C)C)nn(C)c2c(=O)[nH]1 | -14.7 |
| Clc1cccc(CNCC2CCCO2)c1Cl (stereo not shown) | 7.08 |
| CCCc1cc(=O)oc2c(C)c(OCC(=O)N3CCC[C@@H]3C(=O)O)ccc12 | 16.7 |
| Cl.OC(c1cccc(Cl)c1)(c1cccc(Cl)c1)C1CN2CCC1CC2 (stereo not shown) | -69.6 |
| Cc1ccccc1S(=O)(=O)Cc1ccc(C(=O)NC2CCCCCC2)o1 | -5.87 |
| OCc1cccc[n+]1CCc1ccccc1.[Br-] | 17.1 |
| C=CCOC(=O)c1c(C)nc2cc3c(cc2c1C)OCO3.Cl | 5.95 |
| Cc1ccc(C)c(N2CCN(C(=O)CN3C(=O)c4ccccc4C3=O)CC2)c1 | -1.48 |
| O=C(c1cc(-c2ccc3c(c2)OCO3)on1)N1CCN(c2ccc(F)cc2)CC1 | 2.51 |
| N#Cc1ccccc1OCC(=O)N(C1CCCCC1)C1CCS(=O)(=O)C1 (stereo not shown) | 19.7 |
| CC12CCC(=O)N1C(C(=O)Nc1ccc(F)c(F)c1F)CS2 (stereo not shown) | 12.2 |
| N#CC1=C(SCC(N)=O)NC(=O)CC1c1ccccc1Cl (stereo not shown) | 8.44 |
| CCN(CC)S(=O)(=O)c1ccc(-c2cn3ccc(C)cc3n2)cc1 | 7.09 |
| Cc1cccc(-c2oc3ccccc3c2C#CCCCCO)c1 | 16.8 |
